We go through 53 molecules from PubChem BioAssay AID1347073 (National Center for Advancing Translational Sciences (NCATS), 2019).

Hit rate of the full screen: of about 45,000 compounds, about 200 (0.44%) were called active. Not shown: some 7% with an inconclusive outcome. Calls come from the whole dose curve; as a rule, active = well fitted activation curve with a large enough effect; inconclusive = small, poorly fitted or top-dose-only effect; inactive = no such curve, though single readings can be large or run the other way. This is one part of the list.

A short description of the test: qHTS of TDP-43 Inhibitors: NCGC Sytravon Library Screen. Note: 0% is about no effect; nearly all actives have a fitted effect of over 55% in size. The note with it: yeast TDP-43 toxicity rescue, BacTiter-Glo growth, 24 h; series mostly up to 46.1 µM; growth rescue (activation): at the top concentration. An outline of the steps: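 TDP-43-expressing yeast, pregrown in raffinose, seeded at OD600 0.02 in galactose medium with compound for 24 hr at 30 deg C. Growth read by BacTiter-Glo luminescence, so rescue of toxicity appears as activation.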
Take `O=[N+]([O-])c1cc(C(F)(F)F)c(Cl)cc1N1CCN(CCO)CC1`: the “growth rescue (activation)” value is inactive: -7.59%.

Regarding `Cc1cc(C)c2c3c(c(-c4ccccc4)n2n1)c(=O)n(C)c(=O)n3C`, the “growth rescue (activation)” value was inactive: 4.8%.

Regarding `COc1ccc(Cc2nnc(SCC(=O)Nc3ccc(C)c(C)c3)o2)cc1OC`, the “growth rescue (activation)” value was inactive: -16%.

For the molecule `N/N=C(\Cc1cscn1)c1ccc(O)cc1O`, the “growth rescue (activation)” value is inactive: 14.9%.

Take `COc1ccc(C2CC(=O)C3=C(C2)Nc2ccccc2N(C(=O)CCC(=O)O)C3c2ccc(F)cc2)cc1OC` (stereo not drawn): the “growth rescue (activation)” value is inactive: 27.1%.

`Cc1cc(C)nc(-n2nc(C)c(Oc3ccccc3O)c2C)n1`: the “growth rescue (activation)” value is inactive: 5.12%.

Consider `CN(C)CCN(Cc1ccccc1)C(=O)[C@H](Cc1ccccc1)N1C(=O)c2ccccc2C1=O`, for which the “growth rescue (activation)” value was inactive: 1.98%.

For `CC(=O)c1ccc(N2CCN(C(=O)CCCn3c(=O)[nH]c4ccsc4c3=O)CC2)cc1`, the “growth rescue (activation)” value is inactive: 2.39%.

As to `O=C(/C(=C/c1cccc(Cl)c1)c1nc2ccccc2[nH]1)c1ccccc1`, the “growth rescue (activation)” value was inactive: 19.2%.

In the case of `O=C(c1ccc(S(=O)(=O)c2ccccc2)cc1)N1CCCCCC1`, the “growth rescue (activation)” value was inactive: 5.87%.

On to `Cc1ccccc1NC(=S)NCc1ccco1`, for which the “growth rescue (activation)” value was inactive: 14%.

For the molecule `N#CCCn1cc(/C=N/NC(N)=S)c(-c2ccc(Br)cc2)n1`, the “growth rescue (activation)” value is inactive: 12.5%.

Consider `CCSc1nc(-c2ccccc2)c2cc(Cl)ccc2n1`, for which the “growth rescue (activation)” value is inactive: -1.07%.

In the case of `Cn1c(=O)n(C)c2cc(NC(=O)COc3ccc(Cl)cc3)ccc21`, the “growth rescue (activation)” value was inactive: 37.9%.

`O=C(c1cc(S(=O)(=O)N2CCOCC2)c(Cl)cc1Cl)N1CCN(S(=O)(=O)c2cccc(F)c2)CC1`: the “growth rescue (activation)” value is inactive: -9.48%.

`CC(=O)Nc1cccc(-c2csc(C(O)c3cccc(Cl)c3)n2)c1` (stereo not drawn): the “growth rescue (activation)” value was inactive: 15.3%.

Consider `CCCCCCn1c(=O)c(C(=O)N/N=C/c2cccc(F)c2)c(O)c2ccccc21`, for which the “growth rescue (activation)” value was inactive: 0.876%.

For the molecule `NC(=O)c1ccc(NC(=O)COC(=O)C2COc3ccccc3O2)cc1` (stereo not drawn), the “growth rescue (activation)” value was inactive: 12.2%.

Regarding `COc1ccc(CCNC(=O)C(=O)NCCOc2ccccc2Cl)cc1OC`, the “growth rescue (activation)” value is inactive: -2.11%.

Take `COc1ccccc1N(CC(=O)NCCC1=CCCCC1)S(=O)(=O)c1ccccc1`: the “growth rescue (activation)” value is inactive: 10.7%.

As to `COc1ccc(OCCN2CCC(C(=O)NC(c3ccc(Cl)cc3)c3cccnc3)CC2)cc1` (stereo not drawn), the “growth rescue (activation)” value was inactive: 0.906%.

`Cc1cc(C)cc(COc2ccc3c(C)c(CC(=O)O)c(=O)oc3c2C)c1`: the “growth rescue (activation)” value is inactive: -4.74%.

With `CCOc1ccc2cc(S(=O)(=O)N3CCN(C)CC3)ccc2c1`, the “growth rescue (activation)” value was inactive: 20.6%.

For `COc1ccc(C2c3[nH]c4ccccc4c3CCN2C(=O)c2ccc(=O)n(C)n2)c(F)c1` (stereo not drawn), the “growth rescue (activation)” value was inactive: -3.64%.

Consider `O=C(CCCOc1ccccc1)Nc1ccc(S(=O)(=O)Nc2ccccn2)cc1`, for which the “growth rescue (activation)” value is inactive: 10.3%.

In the case of `CC1(C)CC(=O)C(C(=O)/C=C/c2ccco2)C(=O)C1`, the “growth rescue (activation)” value was inactive: 6.01%.

For the molecule `Cc1ccc(/C=C/C(=O)Nc2cccc3cccnc23)o1`, the “growth rescue (activation)” value is inactive: 25.9%.

For the molecule `Brc1ccc(C2Nc3cccc4cccc(c34)N2)cc1`, the “growth rescue (activation)” value was inactive: 8.93%.

Regarding `Cc1ccc(CN2CCC(C)(Oc3cccc(Cl)c3)C2)cc1` (stereo not drawn), the “growth rescue (activation)” value is inactive: -6.99%.

For the molecule `COc1cc(C(=O)Nc2ccc(Cl)c([N+](=O)[O-])c2)cc(OC)c1OC`, the “growth rescue (activation)” value was inactive: -12.4%.

Take `COCCn1c(=O)[nH]c2cc(C(=O)N3CCN(c4cccc(C)c4C)CC3)ccc2c1=O`: the “growth rescue (activation)” value was inactive: 5.83%.

With `CCOC(=O)C1(Cc2cccc(OC)c2)CCN(Cc2ccc3c(c2)OCCO3)CC1`, the “growth rescue (activation)” value is inactive: 4.68%.

On to `O=C(c1cccs1)N1CCN(Cc2ccncc2)CC1`, for which the “growth rescue (activation)” value is inactive: -10.9%.

As to `Nc1ccnn1Cc1ccc(Br)s1`, the “growth rescue (activation)” value is inactive: 9.54%.

On to `Cc1ccc(C2C(C#N)=C(N)Oc3n[nH]c(-c4cccs4)c32)cc1` (stereo not drawn), for which the “growth rescue (activation)” value is inactive: 20.3%.

As for `CCN(CC)c1ccc(/C=N/NC(=O)CNC(=O)/C=C/c2ccco2)cc1`, the “growth rescue (activation)” value was inactive: -10.3%.

Regarding `Cc1cc(C(=O)NCC(=O)OCC(=O)N(C2CCCCC2)C2CCCCC2)ccc1[N+](=O)[O-]`, the “growth rescue (activation)” value is inactive: 10.1%.

Take `Cn1c(=O)c2c(nc(NCc3cccnc3)n2Cc2ccc(Cl)cc2)n(C)c1=O`: the “growth rescue (activation)” value was inactive: 0.844%.

Take `COc1ccc(/C=C/c2n[nH]c(=O)c(C#N)c2C)cc1`: the “growth rescue (activation)” value is inactive: 6.29%.

As to `CN(C)S(=O)(=O)c1ccc(NC(=S)NC(=O)c2cccs2)cc1`, the “growth rescue (activation)” value was inactive: -6.89%.

As for `C[C@]12CC[C@H](O)CC1=C[C@H](O)C1C2CC[C@@]2(C)C1CC[C@@]2(O)C#Cc1ccc(CN)cc1` (stereo partly drawn), the “growth rescue (activation)” value was inactive: 2.44%.

Regarding `Cc1ccccc1CSc1nnc(-c2ccccc2)c(=O)[nH]1`, the “growth rescue (activation)” value was inactive: -8.53%.

On to `O=C(CONS(=O)(=O)c1ccc(Cl)cc1)NCCNc1ncc(C(F)(F)F)cc1Cl`, for which the “growth rescue (activation)” value was inactive: 3.62%.

Regarding `Cc1cc(N2CCN(C)CC2)nc(=S)[nH]1`, the “growth rescue (activation)” value is inactive: 8.64%.

On to `CCN(C(=O)CSc1nnc(-c2c[nH]c3ccccc23)o1)C1CCS(=O)(=O)C1` (stereo not drawn), for which the “growth rescue (activation)” value was inactive: -3.26%.

Turning to `CN(CC(=O)Nc1ccccc1N1CCOCC1)CC(=O)Nc1ccc(F)c(F)c1F`, the “growth rescue (activation)” value was inactive: -9.98%.

Consider `O=C(CN1C(=O)N/C(=C\c2ccccc2OCc2ccc(C(=O)O)cc2)C1=O)Nc1ccccc1F`, for which the “growth rescue (activation)” value is inactive: -17.8%.

On to `O=C(CCCc1nc(-c2ccccc2)no1)NC1CCCCC1`, for which the “growth rescue (activation)” value was inactive: -3.16%.

Consider `COC(=O)Nc1nnc(/C=C/c2ccccc2)s1`, for which the “growth rescue (activation)” value was inactive: -28.1%.

For the molecule `O=C(CCc1ccccc1)Nc1ccc(N2CCCCC2)cc1`, the “growth rescue (activation)” value is inactive: 4.02%.

Turning to `COc1ccccc1/C=C(\NC(=O)c1ccccc1)C(=O)NCc1ccco1`, the “growth rescue (activation)” value was inactive: 17.1%.

In the case of `Cc1ccc(S(=O)(=O)N2CCCCC2)cc1NC(=O)COc1ccccc1F`, the “growth rescue (activation)” value was inactive: 0.961%.

As for `Cc1ccc(C2=NNC3(CCOC(C)(C)C3)S2)cc1` (stereo not drawn), the “growth rescue (activation)” value was inactive: 14%.
